Measured values as given in the supplement of paper PMC8728848.
This is one part of the list.

Assays:
Test in all cases: glycan array binding signal (z-score within array); higher = stronger binding
Details in all cases: glycan notation: IUPAC condensed, linker removed
[1] = biological target: GlcNAc(b1-4)[GlcNAc(b1-6)]GalNAc
In short: (§1)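 Glycan array data came from 3228 arrays in the Consortium for Functional Glycomics database, and only arrays with an available protein sequence were kept. Glycan names were put into IUPAC-condensed notation, and columns mapping to the same glycan were averaged. The binding signal is a within-array Z-score, averaged across arrays of one protein sequence run at different concentrations or buffers and across linkers. A negative Z-score can be read as non-binding.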

[2] = biological target: GlcNAc(b1-6)Gal(b1-4)GlcNAc
In short: as §1

GlcNAc(b1-6)GalNAc = biological target: GlcNAc(b1-6)GalNAc
In short: as §1

[3] = biological target: GlcNAc6S(b1-3)Gal(b1-4)GlcNAc
In short: as §1

Kdn(a2-3)Gal(b1-3)GalNAc = biological target: Kdn(a2-3)Gal(b1-3)GalNAc
In short: as §1

Kdn(a2-3)Gal(b1-3)GlcNAc = biological target: Kdn(a2-3)Gal(b1-3)GlcNAc
In short: as §1

Kdn(a2-3)Gal(b1-4)Glc = biological target: Kdn(a2-3)Gal(b1-4)Glc
In short: as §1

Kdn(a2-3)Gal(b1-4)GlcNAc = biological target: Kdn(a2-3)Gal(b1-4)GlcNAc
In short: as §1

[4] = biological target: Kdn(a2-3)Gal(b1-4)[Fuc(a1-3)]GlcNAc
In short: as §1

Kdn(a2-6)Gal(b1-4)GlcNAc = biological target: Kdn(a2-6)Gal(b1-4)GlcNAc
In short: as §1

[5] = biological target: Man(a1-2)Man(a1-2)Man(a1-3)Man
In short: as §1

[6] = biological target: Man(a1-2)Man(a1-2)Man(a1-6)[Man(a1-3)]Man
In short: as §1

Man(a1-2)Man(a1-3)Man = biological target: Man(a1-2)Man(a1-3)Man
In short: as §1

[7] = biological target: Man(a1-2)Man(a1-3)[Man(a1-2)Man(a1-6)]Man
In short: as §1

[8] = biological target: Man(a1-2)Man(a1-3)[Man(a1-2)Man(a1-6)]Man(a1-6)[Man(a1-2)Man(a1-2)Man(a1-3)]Man
In short: as §1

[9] = biological target: Man(a1-2)Man(a1-3)[Man(a1-2)Man(a1-6)]Man(a1-6)[Man(a1-2)Man(a1-2)Man(a1-3)]Man(b1-4)GlcNAc(b1-4)GlcNAc
In short: as §1

[10] = biological target: Man(a1-2)Man(a1-3)[Man(a1-6)]Man(a1-6)[Man(a1-2)Man(a1-3)]Man(b1-4)GlcNAc(b1-4)GlcNAc
In short: as §1

[11] = biological target: Man(a1-2)Man(a1-6)[Man(a1-3)]Man(a1-6)[Man(a1-2)Man(a1-2)Man(a1-3)]Man
In short: as §1

[12] = biological target: Man(a1-2)Man(a1-6)[Man(a1-3)]Man(a1-6)[Man(a1-2)Man(a1-2)Man(a1-3)]Man(b1-4)GlcNAc(b1-4)GlcNAc
In short: as §1

Man(a1-3)[Man(a1-6)]Man = biological target: Man(a1-3)[Man(a1-6)]Man
In short: as §1

[13] = biological target: Man(a1-3)[Man(a1-6)]Man(a1-6)[Man(a1-2)Man(a1-3)]Man(b1-4)GlcNAc(b1-4)GlcNAc
In short: as §1

[14] = biological target: Man(a1-3)[Man(a1-6)]Man(a1-6)[Man(a1-3)]Man
In short: as §1

[15] = biological target: Man(a1-3)[Man(a1-6)]Man(a1-6)[Man(a1-3)]Man(b1-4)GlcNAc(b1-4)GlcNAc
In short: as §1

[16] = biological target: Man(a1-3)[Man(a1-6)]Man(b1-4)GlcNAc(b1-4)GlcNAc
In short: as §1

[17] = biological target: Man(a1-3)[Man(a1-6)]Man(b1-4)GlcNAc(b1-4)[Fuc(a1-6)]GlcNAc
In short: as §1

Man(a1-6)Man = biological target: Man(a1-6)Man
In short: as §1

Man(b1-4)GlcNAc = biological target: Man(b1-4)GlcNAc
In short: as §1

MurNAc(b1-4)GlcNAc = biological target: MurNAc(b1-4)GlcNAc
In short: as §1

Neu5Ac(a2-3)Gal = biological target: Neu5Ac(a2-3)Gal
In short: as §1

[18] = biological target: Neu5Ac(a2-3)Gal(b1-3)GalNAc
In short: as §1

[19] = biological target: Neu5Ac(a2-3)Gal(b1-3)GalNAc(b1-3)Gal(a1-4)Gal(b1-4)Glc
In short: as §1

[20] = biological target: Neu5Ac(a2-3)Gal(b1-3)GalNAc(b1-4)[Neu5Ac(a2-3)]Gal(b1-4)Glc
In short: as §1

[21] = biological target: Neu5Ac(a2-3)Gal(b1-3)GalNAc(b1-4)[Neu5Ac(a2-8)Neu5Ac(a2-3)]Gal(b1-4)Glc
In short: as §1

[22] = biological target: Neu5Ac(a2-3)Gal(b1-3)GalNAc6S
In short: as §1

[23] = biological target: Neu5Ac(a2-3)Gal(b1-3)GlcNAc
In short: as §1

[24] = biological target: Neu5Ac(a2-3)Gal(b1-3)GlcNAc(b1-2)Man
In short: as §1

[25] = biological target: Neu5Ac(a2-3)Gal(b1-3)GlcNAc(b1-2)Man(a1-3)[GlcNAc(b1-4)][Neu5Ac(a2-3)Gal(b1-3)GlcNAc(b1-2)Man(a1-6)]Man(b1-4)GlcNAc(b1-4)GlcNAc
In short: as §1

[26] = biological target: Neu5Ac(a2-3)Gal(b1-3)GlcNAc(b1-2)Man(a1-3)[Neu5Ac(a2-3)Gal(b1-3)GlcNAc(b1-2)Man(a1-6)]Man(b1-4)GlcNAc(b1-4)GlcNAc
In short: as §1

[27] = biological target: Neu5Ac(a2-3)Gal(b1-3)GlcNAc(b1-3)Gal(b1-3)GlcNAc
In short: as §1

[28] = biological target: Neu5Ac(a2-3)Gal(b1-3)GlcNAc(b1-3)Gal(b1-4)GlcNAc
In short: as §1

[29] = biological target: Neu5Ac(a2-3)Gal(b1-3)GlcNAc(b1-3)GalNAc
In short: as §1

[30] = biological target: Neu5Ac(a2-3)Gal(b1-3)GlcNAc(b1-4)Gal(b1-4)Glc
In short: as §1

[31] = biological target: Neu5Ac(a2-3)Gal(b1-3)GlcNAc(b1-6)GalNAc
In short: as §1

[32] = biological target: Neu5Ac(a2-3)Gal(b1-3)GlcNAc6S
In short: as §1

[33] = biological target: Neu5Ac(a2-3)Gal(b1-3)[Fuc(a1-4)]GlcNAc
In short: as §1

B1: F17-L (Escherichia coli) (protein)
chain: GPDDYVPSQIAVNTSTLPGVVIGPADAHTYPRVIGELAGTSNQYVFNGGAIALMRGKFTPALPKIGSITYTFHQGNSRDSSDFDIYDIGVSGLGIIIGMAGYWPATPLVPINSSGIYIDPVGANTNPNTYNGATASFGARLFVAFVATGRLPNGYITIPTRQLGTILLEAKRTSLNNKGLTAPVMLNGGRIQVQSQTHHHHHH
Which results are given for B1?
glycan array binding signal (z-score) [1]: -0.154; glycan array binding signal (z-score) [2]: 0.019; glycan array binding signal (z-score) (GlcNAc(b1-6)GalNAc): -0.174; glycan array binding signal (z-score) [3]: -0.074; glycan array binding signal (z-score) (Kdn(a2-3)Gal(b1-3)GalNAc): -0.039; glycan array binding signal (z-score) (Kdn(a2-3)Gal(b1-3)GlcNAc): -0.147; glycan array binding signal (z-score) (Kdn(a2-3)Gal(b1-4)Glc): -0.136; glycan array binding signal (z-score) (Kdn(a2-3)Gal(b1-4)GlcNAc): -0.108; glycan array binding signal (z-score) [4]: -0.034; glycan array binding signal (z-score) (Kdn(a2-6)Gal(b1-4)GlcNAc): -0.182; glycan array binding signal (z-score) [5]: -0.074; glycan array binding signal (z-score) [6]: -0.087; glycan array binding signal (z-score) (Man(a1-2)Man(a1-3)Man): -0.169; glycan array binding signal (z-score) [7]: -0.153; glycan array binding signal (z-score) [8]: -0.195; glycan array binding signal (z-score) [9]: -0.086; glycan array binding signal (z-score) [10]: -0.19; glycan array binding signal (z-score) [11]: -0.149; glycan array binding signal (z-score) [12]: -0.168; glycan array binding signal (z-score) (Man(a1-3)[Man(a1-6)]Man): -0.047; glycan array binding signal (z-score) [13]: -0.152; glycan array binding signal (z-score) [14]: -0.029; glycan array binding signal (z-score) [15]: -0.122; glycan array binding signal (z-score) [16]: -0.034; glycan array binding signal (z-score) [17]: -0.176; glycan array binding signal (z-score) (Man(a1-6)Man): -0.102; glycan array binding signal (z-score) (Man(b1-4)GlcNAc): -0.122; glycan array binding signal (z-score) (MurNAc(b1-4)GlcNAc): 4.16; glycan array binding signal (z-score) (Neu5Ac(a2-3)Gal): -0.099; glycan array binding signal (z-score) [18]: -0.111; glycan array binding signal (z-score) [19]: -0.09; glycan array binding signal (z-score) [20]: -0.133; glycan array binding signal (z-score) [21]: 0.06; glycan array binding signal (z-score) [22]: -0.119; glycan array binding signal (z-score) [23]: -0.088; glycan array binding signal (z-score) [24]: -0.157; glycan array binding signal (z-score) [25]: -0.002; glycan array binding signal (z-score) [26]: -0.092; glycan array binding signal (z-score) [27]: -0.063; glycan array binding signal (z-score) [28]: -0.071; glycan array binding signal (z-score) [29]: -0.074; glycan array binding signal (z-score) [30]: -0.075; glycan array binding signal (z-score) [31]: -0.122; glycan array binding signal (z-score) [32]: -0.172; glycan array binding signal (z-score) [33]: -0.039
